Measurements taken from PubChem BioAssay (Tox21).
This list was built around the results that the source calls inconclusive (neither active nor inactive); the mix of calls is not that of the screen. For some of these results: Where the call is inconclusive, the potency comes from a doubtful curve fit. Calls of active or inactive are those of the source. Unless noted, the call rests on the fitted dose curve; in most records, active means well fitted curve in the direction sought with a large enough effect in the repeat runs; inconclusive means weak or mixed curves; inactive means no such curve, though single readings can be large; an effect the other way counts as inactive or inconclusive.

Legend:
[1] = target: Estrogen receptor beta (Homo sapiens) (UniProt Q92731); test: qHTS assay to identify small molecule antagonists of the estrogen receptor beta (ER-beta) signaling pathway (AID 1259378; active means well fitted inhibition curve with a large enough effect in the signal ratio in the repeat runs, not every such curve was filed as active; inconclusive means weak or mixed curves, or effect the other way; inactive means no such curve, though single readings can be large or run the other way; the % refers to the signal ratio; on activity, negative = inhibition: on the % scale 0 is the no-effect control and ±100 the full control effect); settings: ER-beta-UAS-bla HEK293T, beta-lactamase FRET ratio, 16 h; activity, negative = inhibition: at 92.4 µM (top of the series) unless noted
Outline: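 ER-beta-UAS-bla HEK293T cells in 2% charcoal-stripped FBS medium treated with compound plus 1nM final 17-beta-estradiol for 16 hr at 37C. Beta-lactamase reporter read by FRET substrate fluorescence after 2 hours at room temperature.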

[2] = qHTS assay to identify small molecule agonists of the androgen receptor (AR) signaling pathway in the presence of an antagonist - cell viability counter screen (AID 1259379); settings: MDA-kb2 viability, CellTiter-Fluor, 16 h; series mostly up to 92.4 µM; further: nearly all actives have a fitted effect of over 25% in size
Outline: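 Nilutamide-containing (3.0uM final) MDA-kb2 cultures, 3,000 cells/well, were treated with compounds across 15 concentrations. After 16 hr at 37C with no CO2, cell viability was determined by CellTiter-Fluor fluorescence in the luciferase assay wells.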

[3] = qHTS assay to identify small molecule agonists of the estrogen receptor alpha (ER-alpha) signaling pathway in the presence of an antagonist - cell viability counter screen (AID 1259386); settings: VM7Luc4E2 viability, CellTiter-Fluor fluorescence, 22 h; series mostly up to 92.4 µM;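 further: cells exposed to compounds for 22 h at 37 °C before the viability read; nearly all actives have a fitted effect of over 30% in size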
Outline: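 In this counter screen, compound effects on VM7Luc4E2 viability were tested in the presence of the antagonist ICI-182,780 at 10.0nM final. Compounds were dosed at 15 concentrations, exposure lasted 22hr, and the CellTiter-Fluor signal was read.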

[4] = target: Progesterone receptor (Homo sapiens) (UniProt P06401); test: qHTS assay to identify small molecule antagonists of the progesterone receptor (PR) signaling pathway (AID 1346795; active means well fitted inhibition curve with a large enough effect in the signal ratio in the repeat runs, not every such curve was filed as active; inconclusive means weak or mixed curves; the % refers to the signal ratio; on activity change, negative = inhibition: on the % scale 0 is the no-effect control and ±100 the full control effect); settings: PR-UAS-bla HEK293T, beta-lactamase FRET ratio, 16 h; activity change, negative = inhibition: at 92.4 µM (top of the series) unless noted
Outline: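 In HEK293T cells bearing the PR-UAS-bla reporter, compound effects on promegestone-driven (1 nM) beta-lactamase expression are assessed after 16 hr using a fluorescent FRET substrate incubated 2 hr at room temperature.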

[5] = qHTS assay to identify small molecule antagonists of the progesterone receptor (PR) signaling pathway - cell viability counter screen (AID 1346798); settings: PR-UAS-bla HEK293T viability, CellTiter-Glo luminescence, 16 h; series mostly up to 92.4 µM; further: nearly all actives have a fitted effect of over 50% in size
Outline: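 Following a 4 hr attachment, PR-UAS-bla HEK293T cells in charcoal-stripped FBS medium were exposed to compounds with R5020 for 16 hr; CellTiter-Glo was added and luminescence read after 30 min at room temperature.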

[6] = qHTS assay to identify small molecule agonists of the progesterone receptor (PR) signaling pathway - cell viability counter screen (AID 1346799; calls by dose curve; further: nearly all actives have a fitted effect of over 45% in size); settings: PR-UAS-bla HEK293T viability, CellTiter-Glo luminescence, 16 h; series mostly up to 92.4 µM
Outline: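 Here, 3,000 PR-UAS-bla HEK293T cells per well were treated with compounds for 16 hr after a 6 hr preincubation at 37C and 5% CO2; cell viability is the CellTiter-Glo luminescence signal.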

[7] = qHTS assay to identify small molecule agonists of the estrogen receptor beta (ER-beta) signaling pathway - cell viability counter screen (AID 1259380); settings: ER-beta-bla HEK293T viability, CellTiter-Glo luminescence, 16 h; series mostly up to 92.4 µM; further: nearly all actives have a fitted effect of over 30% in size
Outline: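 Steps: plate ER-beta-UAS-bla HEK293T cells, rest 6 hr; add compounds in DMSO; incubate 16 hr at 37C, 5% CO2; add FRET substrate 2 hr; add CellTiter-Glo, wait 30 min at room temperature; read luminescence.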

[8] = qHTS assay to identify small molecule antagonists of the estrogen receptor beta (ER-beta) signaling pathway - cell viability counter screen (AID 1259382); settings: ER-beta-UAS-bla HEK293T viability, CellTiter-Glo luminescence, 16 h; series mostly up to 92.4 µM; further: nearly all actives have a fitted effect of over 55% in size
Outline: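 Viability is scored by CellTiter-Glo luminescence (30 min, room temperature) in ER-beta-UAS-bla HEK293T wells already read for reporter fluorescence. Compound exposure lasts 16 hr at 37C alongside 1nM 17-beta-estradiol in charcoal-stripped serum medium.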

[9] = target: Thyrotropin receptor (Homo sapiens) (UniProt P16473); test: qHTS assay to identify small molecule antagonists of the thyroid stimulating hormone receptor (TSHR) signaling pathway (AID 1259385; calls by dose curve; further: nearly all actives have a fitted effect of over 20% in size); settings: TSHR-HEK293 cAMP HTRF, TSH-stimulated antagonist mode; activity change, negative = inhibition: at 92.4 µM (top of the series) unless noted
Outline: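 TSHR-HEK293 cells (800/well) plated 18 h, then compounds with Ro20-1724 and TSH at 1.5 ng/mL final, 30 min at room temperature. cAMP quantified by HTRF (cAMP-d2/anti-cAMP-cryptate, 1 h); 15 concentrations in triplicate.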

[10] = qHTS assay to identify small molecule agonists of the TGF-beta/Smad signaling pathway (AID 1346859; active means well fitted activation curve with a large enough effect in the signal ratio in the repeat runs, not every such curve was filed as active; inconclusive means weak or mixed curves; the % refers to the signal ratio; on activation: on the % scale 0 is the no-effect control and ±100 the full control effect); settings: SBE-bla HEK293T, TGF-beta/Smad beta-lactamase reporter, 5 h; activation: at 76.8 µM (top of the series)
Outline: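 Each well held 4,000 SBE-bla HEK 293T cells incubated overnight before compound addition; 5 hr later the cleavable FRET substrate went on for 2 hr at room temperature, and fluorescence was read at two emissions.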

[11] = target: Thyrotropin-releasing hormone receptor (Homo sapiens) (UniProt P34981); test: qHTS assay to identify small molecule antagonists of the thyrotropin-releasing hormone receptor (TRHR) signaling pathway (AID 1346877; active means well fitted inhibition curve with a large enough effect in the repeat runs, not every such curve was filed as active; inconclusive means weak or mixed curves); settings: TRHR-HEK293, TRH-induced calcium fluorescence, antagonist mode; series mostly up to 51.3 µM
Outline: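 Kinetic fluorescence (3 min, 1 s resolution) following stimulation with TRH at 1 nM final; HEK293 cells bearing human TRHR; 5 min compound preincubation at RT; concentration-response over 15 points, triplicates.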

[12] = target: Androgen receptor (Homo sapiens) (UniProt P10275); test: qHTS assay to identify small molecule agonists of the androgen receptor (AR) signaling pathway in the presence of an antagonist (AID 1259381; calls by dose curve; further: nearly all actives have a fitted effect of over 15% in size); settings: MDA-kb2 MMTV-luciferase, AR agonist + nilutamide, 16 h; series mostly up to 92.4 µM
Outline: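 Reporter-gene luminescence from MDA-kb2 cells exposed 16hr at 37C (0% CO2) to 15-point compound titrations with 3.0uM final nilutamide as AR antagonist.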

[13] = target: Progesterone receptor (Homo sapiens) (UniProt P06401); test: qHTS assay to identify small molecule agonists of the progesterone receptor (PR) signaling pathway (AID 1346784; calls by dose curve; further: nearly all actives have a fitted effect of over 30% in size); settings: PR-UAS-bla HEK293T, beta-lactamase FRET ratio, 16 h; activation: at 92.4 µM (top of the series) unless noted
Outline: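 Compounds were tested for PR agonism in HEK 293T cells bearing a beta-lactamase gene under UAS control. Treatment lasted 16 hr at 37C; signal came from fluorescence of a FRET substrate.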
Potency means the concentration at half of the fitted maximal effect; tags describe the fitted curve by direction and shape or compound fluorescence and quenching.

Sequence of UniProt Q92731 (Q92731 whole entry, looked up): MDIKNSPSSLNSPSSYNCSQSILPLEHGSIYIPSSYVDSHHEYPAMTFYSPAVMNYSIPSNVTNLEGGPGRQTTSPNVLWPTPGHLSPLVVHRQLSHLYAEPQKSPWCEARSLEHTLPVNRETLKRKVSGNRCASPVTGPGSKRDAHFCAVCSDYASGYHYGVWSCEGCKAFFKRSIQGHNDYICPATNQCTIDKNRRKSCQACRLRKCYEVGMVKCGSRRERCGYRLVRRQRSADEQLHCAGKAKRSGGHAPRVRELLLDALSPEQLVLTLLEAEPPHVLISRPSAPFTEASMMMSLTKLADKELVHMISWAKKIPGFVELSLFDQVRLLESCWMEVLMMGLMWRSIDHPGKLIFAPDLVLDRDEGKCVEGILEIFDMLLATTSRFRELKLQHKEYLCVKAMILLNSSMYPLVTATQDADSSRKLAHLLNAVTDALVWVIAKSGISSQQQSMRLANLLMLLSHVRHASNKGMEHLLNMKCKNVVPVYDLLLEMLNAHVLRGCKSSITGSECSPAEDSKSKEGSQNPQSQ
Sequence of UniProt P06401 (P06401 whole entry, looked up): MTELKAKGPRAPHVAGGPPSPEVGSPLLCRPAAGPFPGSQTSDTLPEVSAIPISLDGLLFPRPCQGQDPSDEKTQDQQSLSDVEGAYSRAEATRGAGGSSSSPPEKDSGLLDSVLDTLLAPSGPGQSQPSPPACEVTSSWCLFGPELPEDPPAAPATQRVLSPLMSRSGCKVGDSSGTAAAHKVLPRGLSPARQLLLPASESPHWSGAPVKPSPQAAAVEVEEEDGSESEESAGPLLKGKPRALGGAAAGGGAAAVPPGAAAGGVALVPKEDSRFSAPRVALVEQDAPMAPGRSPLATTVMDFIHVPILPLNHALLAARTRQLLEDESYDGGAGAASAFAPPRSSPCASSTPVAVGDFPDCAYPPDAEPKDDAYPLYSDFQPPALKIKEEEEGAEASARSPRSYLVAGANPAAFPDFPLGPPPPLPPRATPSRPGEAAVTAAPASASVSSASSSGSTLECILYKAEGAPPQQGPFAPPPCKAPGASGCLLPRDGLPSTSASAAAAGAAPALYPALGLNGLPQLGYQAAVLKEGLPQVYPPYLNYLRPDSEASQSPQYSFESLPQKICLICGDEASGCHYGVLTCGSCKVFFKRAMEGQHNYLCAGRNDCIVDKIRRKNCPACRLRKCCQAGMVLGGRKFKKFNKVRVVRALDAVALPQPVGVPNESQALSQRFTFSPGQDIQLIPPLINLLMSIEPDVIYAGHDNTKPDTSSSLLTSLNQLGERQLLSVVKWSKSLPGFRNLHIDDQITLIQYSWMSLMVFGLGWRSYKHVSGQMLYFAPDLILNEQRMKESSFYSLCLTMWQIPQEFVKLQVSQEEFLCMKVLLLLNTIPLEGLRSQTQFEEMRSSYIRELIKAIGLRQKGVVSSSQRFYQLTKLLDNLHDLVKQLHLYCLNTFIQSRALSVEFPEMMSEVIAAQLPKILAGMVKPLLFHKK
Sequence of UniProt P34981 (P34981 whole entry, looked up): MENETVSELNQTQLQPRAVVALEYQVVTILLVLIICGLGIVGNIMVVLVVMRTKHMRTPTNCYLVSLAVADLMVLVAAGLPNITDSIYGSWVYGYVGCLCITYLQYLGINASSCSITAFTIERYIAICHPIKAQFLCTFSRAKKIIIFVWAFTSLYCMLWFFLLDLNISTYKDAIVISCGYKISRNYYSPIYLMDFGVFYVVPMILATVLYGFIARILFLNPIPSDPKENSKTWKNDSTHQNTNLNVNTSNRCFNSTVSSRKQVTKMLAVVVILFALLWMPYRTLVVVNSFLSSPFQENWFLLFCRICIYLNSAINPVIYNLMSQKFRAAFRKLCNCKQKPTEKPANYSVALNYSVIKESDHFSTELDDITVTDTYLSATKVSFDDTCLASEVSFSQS
Sequence of UniProt P16473 (P16473 whole entry, looked up): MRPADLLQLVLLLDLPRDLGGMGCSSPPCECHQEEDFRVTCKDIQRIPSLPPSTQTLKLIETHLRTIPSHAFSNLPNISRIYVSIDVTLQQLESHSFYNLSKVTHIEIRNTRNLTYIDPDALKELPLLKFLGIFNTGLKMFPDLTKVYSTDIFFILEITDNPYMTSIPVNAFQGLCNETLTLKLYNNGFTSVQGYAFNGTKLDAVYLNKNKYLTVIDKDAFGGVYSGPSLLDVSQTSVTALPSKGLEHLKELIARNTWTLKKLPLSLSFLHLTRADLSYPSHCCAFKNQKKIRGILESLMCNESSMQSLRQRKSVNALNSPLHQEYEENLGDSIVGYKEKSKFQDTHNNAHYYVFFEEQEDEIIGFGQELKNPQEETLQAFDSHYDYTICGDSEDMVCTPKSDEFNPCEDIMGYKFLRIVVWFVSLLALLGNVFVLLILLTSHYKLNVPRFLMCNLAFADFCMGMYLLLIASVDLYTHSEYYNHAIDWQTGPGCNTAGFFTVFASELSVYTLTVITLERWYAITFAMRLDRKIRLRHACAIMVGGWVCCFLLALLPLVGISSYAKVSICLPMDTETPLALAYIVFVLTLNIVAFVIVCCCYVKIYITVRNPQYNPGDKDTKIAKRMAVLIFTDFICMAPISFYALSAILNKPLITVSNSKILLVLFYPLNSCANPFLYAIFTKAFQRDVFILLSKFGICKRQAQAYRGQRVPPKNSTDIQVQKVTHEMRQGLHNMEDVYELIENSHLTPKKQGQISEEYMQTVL
Sequence of UniProt P10275 (P10275 whole entry, looked up): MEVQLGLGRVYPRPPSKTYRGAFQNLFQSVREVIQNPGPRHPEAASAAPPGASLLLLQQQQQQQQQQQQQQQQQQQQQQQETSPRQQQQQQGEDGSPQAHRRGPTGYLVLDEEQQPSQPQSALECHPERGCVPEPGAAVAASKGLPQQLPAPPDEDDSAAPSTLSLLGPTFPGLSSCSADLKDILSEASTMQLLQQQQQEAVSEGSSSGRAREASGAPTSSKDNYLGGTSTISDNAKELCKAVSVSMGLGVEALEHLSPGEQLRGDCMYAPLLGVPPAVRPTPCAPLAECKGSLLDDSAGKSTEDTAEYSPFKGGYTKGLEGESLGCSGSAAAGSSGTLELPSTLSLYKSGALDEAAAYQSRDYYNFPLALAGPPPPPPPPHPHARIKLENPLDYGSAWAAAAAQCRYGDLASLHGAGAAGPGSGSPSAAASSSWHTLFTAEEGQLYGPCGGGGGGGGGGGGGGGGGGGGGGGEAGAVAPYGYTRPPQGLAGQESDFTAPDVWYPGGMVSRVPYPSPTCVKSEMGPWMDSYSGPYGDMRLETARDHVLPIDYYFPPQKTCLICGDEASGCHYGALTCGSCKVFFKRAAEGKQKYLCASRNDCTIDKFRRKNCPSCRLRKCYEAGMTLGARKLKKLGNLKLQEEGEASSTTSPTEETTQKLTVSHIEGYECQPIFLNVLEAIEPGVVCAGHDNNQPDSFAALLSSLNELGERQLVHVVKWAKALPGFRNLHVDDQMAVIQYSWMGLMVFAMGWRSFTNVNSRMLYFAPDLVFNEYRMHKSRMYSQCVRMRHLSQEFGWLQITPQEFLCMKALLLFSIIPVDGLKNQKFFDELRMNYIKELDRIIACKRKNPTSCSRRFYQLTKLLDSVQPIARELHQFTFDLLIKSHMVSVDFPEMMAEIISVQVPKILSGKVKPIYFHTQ

Q: What does the source list for O=c1[nH]c2ccc(S(=O)CCN3CCC(Cc4ccc(F)cc4)CC3)cc2o1 (stereo unspecified)?
A: activity, negative = inhibition [1]: inconclusive: -33.6%; Potency [2]: inconclusive: 61.1 µM [cytotoxic]; Potency [3]: inconclusive: 30.6 µM [cytotoxic, partial curve]; Potency [4]: inconclusive: 61.1 µM [rising, partial curve]; Potency [5]: inconclusive: 30.6 µM [rising, partial curve]; Potency [6]: inconclusive: 34.4 µM [rising, partial curve, poor fit]

Q: With O=c1cc(CO)occ1O as the compound, how does the activity, negative = inhibition [1] read?
A: inconclusive: 9.01% [at 42.5 µM]

Q: Which Potency [1] does the source give for C/C(=C\c1ccc(C(=O)O)cc1)c1ccc2c(c1)C(C)(C)CCC2(C)C here?
A: inconclusive: 10.6 µM [rising, partial curve]

Q: And the Potency [2]?
A: inactive

Q: And the Potency [7]?
A: inconclusive: 11.9 µM [cytotoxic, partial curve]

Q: What about the Potency [8] of the same compound?
A: inconclusive: 11.9 µM [cytotoxic, partial curve, poor fit]

Q: And the Potency [9]?
A: active: 29.8 µM

Q: What about the Potency [3] of the same compound?
A: inactive

Q: What about the Potency [4] of the same compound?
A: inconclusive: 11.9 µM

Q: What about the Potency [10] of the same compound?
A: inactive

Q: What about the Potency [11] of the same compound?
A: inconclusive: 14.7 µM [inhibitor, partial curve, poor fit]

Q: Which Potency [1] does the source give for Cc1cncc(C)c1 here?
A: inactive

Q: Which activity, negative = inhibition [1] does the source give for CCCCCCCCCCCC(=O)OC[C@@H](O)[C@H]1OC[C@H](OCCO)[C@H]1OCCO here?
A: inconclusive: 26%

Q: What does the source list for CC(C)CCC(=O)CCC(C)C?
A: Potency [1]: inactive; Potency [2]: inactive

Q: Which Potency [1] does the source give for CN(C)C(=O)CNC(=O)Cc1ccccc1 here?
A: inactive

Q: Which Potency [1] does the source give for COc1cc2nc(N3CCN(C(=O)C4CCCO4)CC3)nc(N)c2cc1OC (stereo unspecified) here?
A: inactive

Q: With CN(C)CCCN1c2ccccc2Sc2ccccc21 as the compound, how does the activity, negative = inhibition [1] read?
A: inconclusive: -60.9% [at 42.5 µM]

Q: What about the Potency [2] of the same compound?
A: inconclusive: 23.7 µM [cytotoxic, partial curve, poor fit]

Q: And the Potency [7]?
A: active: 21.1 µM

Q: And the activity change, negative = inhibition [4]?
A: inconclusive: -33% [at 42.5 µM]

Q: What about the Potency [5] of the same compound?
A: inconclusive: 15 µM [cytotoxic, full curve]

Q: And the Potency [6]?
A: inconclusive: 16.8 µM [cytotoxic, partial curve]

Q: Which activity, negative = inhibition [1] does the source give for CC(C)(C)c1ccc(-c2ccc(C(C)(C)C)cc2)cc1 here?
A: inconclusive: 16.9%

Q: Which Potency [1] does the source give for C=CCOC(=O)CCC1CCCCC1 here?
A: inactive

Q: Which results are given for Cc1c(Cl)c(=O)oc2cc(O)ccc12?
A: Potency [1]: inconclusive: 54.5 µM [fluorescent, partial curve]; Potency [2]: inconclusive: 54.5 µM [rising, partial curve]; Potency [12]: inconclusive: 27.3 µM [rising, partial curve, poor fit]; Potency [3]: inconclusive: 61.1 µM [rising, partial curve]; Potency [13]: inconclusive: 27.3 µM [fluorescent, partial curve]; Potency [4]: inconclusive: 34.4 µM [rising, partial curve]; Potency [5]: inactive; Potency [6]: inconclusive: 6.86 µM [cytotoxic, single point]; Potency [10]: inconclusive: 49 µM [fluorescent, partial curve]

Q: Which results are given for Nc1ccccc1S(=O)(=O)O?
A: Potency [1]: inactive; Potency [7]: inactive

Q: What does the source list for CC(C)=CCC/C(C)=C/CC/C(C)=C/CO?
A: activity, negative = inhibition [1]: inconclusive: -36.9%; Potency [7]: inconclusive: 61.1 µM [cytotoxic, partial curve]; activity change, negative = inhibition [4]: inconclusive: -29.1%

Q: Which results are given for NC(N)=NC(=O)c1nc(Cl)c(N)nc1N?
A: activity, negative = inhibition [1]: inconclusive: 21.1%; Potency [2]: inconclusive: 63.5 µM [cytotoxic, partial curve, poor fit]; Potency [4]: inactive

Q: Which results are given for COC(=O)[C@H]1[C@H]2C[C@@H]3c4[nH]c5cc(OC)ccc5c4CCN3C[C@H]2C[C@@H](OC(=O)COc2ccc(OC)cc2)[C@@H]1OC?
A: activity, negative = inhibition [1]: inconclusive: -34.5% [at 42.5 µM]; Potency [7]: inconclusive: 18.8 µM [cytotoxic, partial curve]; Potency [8]: inconclusive: 26.6 µM [cytotoxic, partial curve, poor fit]; Potency [10]: inconclusive: 6.01 µM [rising, partial curve, poor fit]

Q: With CCC1=C(C)CN(C(=O)NCCc2ccc(S(=O)(=O)NC(=O)NC3CCC(C)CC3)cc2)C1=O (stereo unspecified) as the compound, how does the activity, negative = inhibition [1] read?
A: inconclusive: -28.6% [at 42.5 µM]

Q: And the Potency [7]?
A: inconclusive: 47.3 µM [cytotoxic, partial curve, poor fit]

Q: And the Potency [10]?
A: inconclusive: 10.7 µM [rising, partial curve]

Q: Which Potency [1] does the source give for CC(=O)C=O here?
A: inactive

Q: What about the Potency [7] of the same compound?
A: inactive

Q: Which results are given for O=S1(=O)c2cccc3cccc(c23)N1CCCN1CCN(c2ccc(F)cc2)CC1?
A: activity, negative = inhibition [1]: inconclusive: -29.7% [at 42.5 µM]; Potency [7]: inconclusive: 4.73 µM [cytotoxic, full curve]; Potency [4]: active: 18.8 µM; Potency [5]: inconclusive: 7.5 µM [rising, full curve]; Potency [6]: inconclusive: 11.9 µM
